# Experimental data published in PubChem BioAssay (Tox21).
# Several values for one entry are separate records, joined by “and”; a condition that tells them apart may be missing. Equal entries are not always repeated. This list was built around the results that the source calls inconclusive (neither active nor inactive); the mix of calls is not that of the screen. For some assays here: Where the call is inconclusive, the potency comes from a doubtful curve fit. Some structures have more than one record in an assay (separate samples or runs), and their calls can disagree. Activity calls are given as the source filed them. Unless noted, calls come from the whole dose curve; as a rule, active = well fitted curve in the direction sought with a large enough effect in the repeat runs; inconclusive = weak or mixed curves; inactive = no such curve, though single readings can be large; an effect the other way counts as inactive or inconclusive.
# Assays:
# [1] = qHTS assay to identify small molecule antagonists of the peroxisome proliferator-activated receptor gamma (PPARg) signaling pathway - cell viability counter screen (AID 743194); conditions: PPARg-bla HEK293H viability, CellTiter-Glo luminescence, 17 h; Potency: co-treated with 50 nM rosiglitazone unless noted; activity change, negative = cytotoxicity: at 62.6 µM (top of the series), co-treated with 50 nM rosiglitazone unless noted; note: nearly all actives have a fitted effect of over 55% in size; note: potency is the fitted concentration of half-maximal effect; for activity change, negative = cytotoxicity: % is set by controls: 0 for no effect and ±100 for the full control effect
# Method in brief: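 PPARg-UAS-bla HEK293H cells were plated, rested 5 h at 37 C, then treated with compounds plus rosiglitazone (50 nM final) for 17 h at 37 C; viability was then read by CellTiter-Glo luminescence after 30 min at room temperature.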
# [2] = qHTS assay for small molecule agonists of the antioxidant response element (ARE) signaling pathway (AID 743202; active = well fitted activation curve with a large enough effect in the signal ratio in the repeat runs, not every such curve was filed as active; inconclusive = weak or mixed curves, or effect the other way; inactive = no such curve, though single readings can be large or run the other way; the % refers to the signal ratio; note: % is set by controls: 0 for no effect and ±100 for the full control effect); conditions: HepG2 ARE-bla reporter, beta-lactamase FRET, 16 h; activation: at 73.3 µM (top of the series) unless noted
# Method in brief: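 Steps: seed ARE-bla HepG2 cells (2,000/well); incubate 5 h at 37 C; add compounds by pin tool; incubate 16 h at 37 C; add FRET substrate; read fluorescence after 2 h at RT.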
# [3] = molecular target: Peroxisome proliferator-activated receptor delta (Homo sapiens) (UniProt Q03181); assay: qHTS assay to identify small molecule antagonists of the peroxisome proliferator-activated receptor delta (PPARd) signaling pathway (AID 743215; active = well fitted inhibition curve with a large enough effect in the signal ratio in the repeat runs, not every such curve was filed as active; inconclusive = weak or mixed curves, or effect the other way; inactive = no such curve, though single readings can be large or run the other way; the % refers to the signal ratio;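 note: cells stimulated with agonist L165041 at 300 nM final during compound exposure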; note: potency is the fitted concentration of half-maximal effect); conditions: HEK293H PPARd-UAS-bla, beta-lactamase FRET ratio, antagonist, 17 h; ratio activity, negative = inhibition: at 62 µM (top of the series) unless noted
# UniProt Q03181, sequence (Q03181 whole entry, looked up): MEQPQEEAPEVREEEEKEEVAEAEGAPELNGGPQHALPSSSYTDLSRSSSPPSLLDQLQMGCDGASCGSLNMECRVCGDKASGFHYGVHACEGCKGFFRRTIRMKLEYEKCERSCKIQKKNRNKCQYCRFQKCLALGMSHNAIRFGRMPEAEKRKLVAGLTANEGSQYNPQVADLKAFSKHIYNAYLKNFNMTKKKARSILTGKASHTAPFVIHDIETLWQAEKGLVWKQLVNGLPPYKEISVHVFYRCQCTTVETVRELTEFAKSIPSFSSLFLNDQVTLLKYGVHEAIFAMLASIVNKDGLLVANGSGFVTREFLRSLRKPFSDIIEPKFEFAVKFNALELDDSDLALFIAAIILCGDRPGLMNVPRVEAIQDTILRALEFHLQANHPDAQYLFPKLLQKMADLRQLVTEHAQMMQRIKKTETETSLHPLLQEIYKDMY
# Method in brief: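 Plated HEK293H PPARd-bla cells rested 5 h at 37 C and 5% CO2. Compound, then agonist L165041 at 300 nM final, was added; 17 h at 37 C followed. Substrate loading, 2 h room temperature, fluorescence measured.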
# [4] = molecular target: Peroxisome proliferator-activated receptor delta (Homo sapiens) (UniProt Q03181); assay: qHTS assay to identify small molecule agonists of the peroxisome proliferator-activated receptor delta (PPARd) signaling pathway (AID 743212; calls by dose curve; note: potency is the fitted concentration of half-maximal effect; for activation: % is set by controls: 0 for no effect and ±100 for the full control effect); conditions: HEK293H PPARd-UAS-bla, beta-lactamase FRET ratio, 17 h; activation: at 62.6 µM (top of the series) unless noted
# Method in brief: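 Cells expressing a UAS-driven beta-lactamase reporter (PPARd-bla HEK293H) were given test compounds after a 5 h settle and kept at 37 C. Reporter activity was then measured as FRET fluorescence using LiveBLAzer B/G substrate.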
# [5] = molecular target: Bile acid receptor (Homo sapiens) (UniProt Q96RI1); assay: qHTS assay to identify small molecule antagonists of the farnesoid-X-receptor (FXR) signaling pathway (AID 743217; active = well fitted inhibition curve with a large enough effect in the signal ratio in the repeat runs, not every such curve was filed as active; inconclusive = weak or mixed curves, or effect the other way; inactive = no such curve, though single readings can be large or run the other way; the % refers to the signal ratio; note: potency is the fitted concentration of half-maximal effect; for activity change, negative = inhibition: % is set by controls: 0 for no effect and ±100 for the full control effect); conditions: HEK293T FXR-UAS-bla, beta-lactamase ratio, CDCA-stimulated, 16 h; activity change, negative = inhibition: at 62.6 µM (top of the series) unless noted
# UniProt Q96RI1, sequence (Q96RI1 whole entry, looked up): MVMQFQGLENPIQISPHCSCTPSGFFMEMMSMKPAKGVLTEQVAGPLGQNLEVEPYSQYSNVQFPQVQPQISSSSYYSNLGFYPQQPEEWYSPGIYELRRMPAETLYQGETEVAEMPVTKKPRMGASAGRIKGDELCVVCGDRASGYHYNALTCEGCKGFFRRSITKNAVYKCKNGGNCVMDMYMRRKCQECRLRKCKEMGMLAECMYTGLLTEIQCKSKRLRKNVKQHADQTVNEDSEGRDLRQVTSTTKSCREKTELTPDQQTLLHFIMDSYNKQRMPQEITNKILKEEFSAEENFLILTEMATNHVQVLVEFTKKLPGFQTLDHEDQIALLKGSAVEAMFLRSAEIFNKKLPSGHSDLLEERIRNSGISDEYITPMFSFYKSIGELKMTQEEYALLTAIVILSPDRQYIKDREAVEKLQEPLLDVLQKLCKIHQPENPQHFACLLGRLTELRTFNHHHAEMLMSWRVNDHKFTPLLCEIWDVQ
# Method in brief: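 Screen of the Tox21 10K library in quantitative HTS format using FXR-UAS-bla HEK 293T reporter cells. Agonist chenodeoxycholic acid, 50 uM final, added with compounds; 16 h incubation at 37 °C; beta-lactamase FRET fluorescence measured.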
# [6] = qHTS assay for small molecule activators of the heat shock response signaling pathway - cell viability counter screen (AID 743209); conditions: HSE-bla HeLa viability, CellTiter-Glo luminescence, 5 h; activity change, negative = cytotoxicity: at 62.6 µM (top of the series) unless noted; note: potency is the fitted concentration of half-maximal effect; nearly all actives have a fitted effect of over 50% in size
# Method in brief: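 Viability of HSE-bla HeLa cells is measured with CellTiter-Glo in the wells already used for the reporter read. Compound exposure lasts 5 h at 37 C, and luminescence is read after 30 min at room temperature.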
# [7] = qHTS assay for small molecule activators of the heat shock response signaling pathway (AID 743210; active = well fitted activation curve with a large enough effect in the signal ratio in the repeat runs, with a control signal flat, not every such curve was filed as active; inconclusive = weak or mixed curves; the % refers to the signal ratio; note: potency is the fitted concentration of half-maximal effect); conditions: HeLa HSE-bla reporter, beta-lactamase ratio, 5 h; activation: at 62.6 µM (top of the series) unless noted
# Method in brief: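 Activation of heat shock element-controlled beta-lactamase expression is measured in HeLa cells by LiveBLAzer FRET fluorescence, with compound exposure lasting 5 h at 37 C and substrate loading 2.5 h at room temperature.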
# [8] = qHTS assay to identify small molecule agonists of the peroxisome proliferator-activated receptor delta (PPARd) signaling pathway - cell viability counter screen (AID 743211); conditions: PPARd-bla HEK293H viability, CellTiter-Glo luminescence, 17 h; activity change, negative = cytotoxicity: at 62.6 µM (top of the series); note: potency is the fitted concentration of half-maximal effect; nearly all actives have a fitted effect of over 55% in size
# Method in brief: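 Read-out: CellTiter-Glo luminescence, 30 min RT, measured in the same wells as the beta-lactamase reporter. Cells: GeneBLAzer PPAR delta UAS-bla HEK293H, 3000 cells/well, compound exposure 17 h at 37C.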
# [9] = qHTS assay to identify small molecule antagonists of the peroxisome proliferator-activated receptor delta (PPARd) signaling pathway - cell viability counter screen (AID 743213); conditions: PPARd-bla HEK293H viability, CellTiter-Glo luminescence, 17 h; viability change, negative = cytotoxic: at 62 µM (top of the series) unless noted; note: nearly all actives have a fitted effect of over 50% in size; note: potency is the fitted concentration of half-maximal effect
# Method in brief: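 HEK293H cells with the PPARd UAS-bla reporter, co-treated 17 h at 37 C with compounds and L165041 (300 nM final), were lysed with CellTiter-Glo. Luminescence indicated viable cell content.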
# [10] = qHTS assay for small molecule agonists of the antioxidant response element (ARE) signaling pathway - cell viability counter screen (AID 743203; calls by dose curve; note: potency is the fitted concentration of half-maximal effect; nearly all actives have a fitted effect of over 55% in size); conditions: ARE-bla HepG2 viability, CellTiter-Glo luminescence, 16 h; viability change, negative = cytotoxic: at 73.3 µM (top of the series)
# Method in brief: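 Viability counter screen: stably transfected ARE-bla HepG2 line, 16 hrs compound exposure at 37C/5% CO2, ATP-based CellTiter-Glo luminescence measured in the reporter wells.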
# Tags give direction and shape of the fitted curve or compound fluorescence and quenching.
smiles,measurement,setting,value
CC(C)c1ccc(CO)cc1,Potency,[1],"inconclusive: 6.17 µM [rising, full curve, poor fit]"
same,Potency,[2],inactive
same,Potency,[3],"inconclusive: 27.5 µM [activator, partial curve, poor fit]"
O=S(=O)(O)C(F)(F)C(F)(F)C(F)(F)C(F)(F)C(F)(F)C(F)(F)F,"activity change, negative = cytotoxicity",[1],inconclusive: 35.8%
same,activation,[2],inconclusive: 13.5%
same,activation,[4],inconclusive: 0.484%
same,Potency,[5],inactive
COP(=O)(OC)O/C(=C\Cl)c1cc(Cl)c(Cl)cc1Cl,Potency,[1],"inconclusive: 2.45 µM [cytotoxic, full curve]"
same,activation,[2],inconclusive: 36.7%
same,activation,[4],inconclusive: 11.6%
same,Potency,[5],inactive
CCC(C)(C)c1ccc(O)c(C(C)(C)CC)c1,Potency,[1],active: 24.3 µM and active: 21.9 µM
same,Potency,[6],active: 17.2 µM and active: 17.4 µM
same,Potency,[7],inconclusive: 21.6 µM [single point] and inconclusive: 30.9 µM
same,Potency,[8],active: 19.3 µM and active: 19.5 µM
same,Potency,[9],active: 17.2 µM and active: 38.9 µM
same,"ratio activity, negative = inhibition",[3],inconclusive: -23%
CC(C)c1cccc(C(C)C)c1O,Potency,[1],"inconclusive: 33.5 µM [cytotoxic, partial curve, poor fit]"
same,Potency,[6],"inconclusive: 53.1 nM [rising, full curve]"
same,Potency,[4],inactive
CN(C)c1ccc(N=O)cc1,Potency,[1],active: 49.1 µM and active: 34.7 µM
same,Potency,[10],active: 54.5 µM
same,Potency,[6],active: 3.9 µM and active: 5.49 µM
same,Potency,[7],inconclusive: 23.7 µM and inconclusive: 29.7 µM
same,Potency,[8],"inconclusive: 21.9 µM [cytotoxic, partial curve, poor fit]"
same,Potency,[4],inconclusive: 61.6 µM
same,Potency,[9],"inconclusive: 2.19 µM [cytotoxic, full curve] and active: 43.6 µM"
same,Potency,[3],active: 21.9 µM
same,"ratio activity, negative = inhibition",[3],inconclusive: 14.4% [at 80.4 µM]
CCCCCCCCCCCCCCCC[N+](C)(C)C,Potency,[1],"active: 18.8 µM and inconclusive: 38.9 µM [cytotoxic, partial curve, poor fit] and active: 29.8 µM"
same,Potency,[6],"active: 21.1 µM and active: 43.6 µM and inconclusive: 33.5 µM [cytotoxic, single point]"
same,Potency,[7],inconclusive: 26.6 µM [single point] and inconclusive: 54.9 µM [cytotoxic] and inconclusive: 35.5 µM
same,Potency,[8],active: 16.8 µM and active: 38.9 µM and active: 23.7 µM
same,Potency,[3],"inconclusive: 26.6 µM [inhibitor, single point] and inconclusive: 49 µM [cytotoxic, partial curve]"
O=[N+]([O-])c1c(Cl)c(Cl)c(Cl)c(Cl)c1Cl,Potency,[1],"inconclusive: 0.0973 µM [cytotoxic, full curve, poor fit]"
same,Potency,[10],"inconclusive: 60.8 µM [cytotoxic, single point] and active: 19.3 µM"
same,Potency,[7],"inconclusive: 12.3 µM [falling, full curve]"
same,Potency,[4],inconclusive: 54.9 µM [partial curve]
same,Potency,[9],inactive
CCCCCCCCCCCCCC[P+](CCCCCC)(CCCCCC)CCCCCC,Potency,[1],active: 24.7 µM and active: 7.82 µM and active: 2.45 µM
same,Potency,[6],"active: 6.19 µM and active: 7.82 µM and inconclusive: 1.55 µM [cytotoxic, full curve]"
same,Potency,[7],"inconclusive: 17.5 µM [cytotoxic, full curve] and inconclusive: 15.6 µM [cytotoxic]"
same,Potency,[9],"active: 15.6 µM and active: 3.92 µM and inconclusive: 436 nM [cytotoxic, full curve]"
same,Potency,[3],"inconclusive: 43.8 µM [cytotoxic, partial curve, poor fit] and inconclusive: 24.7 µM [cytotoxic, full curve]"
same,"ratio activity, negative = inhibition",[3],inconclusive: -28.9%
ClC1=C(Cl)C2(Cl)C3C(Cl)C(Cl)CC3C1(Cl)C2(Cl)Cl (stereo not drawn),Potency,[1],"inconclusive: 54.8 µM [cytotoxic, single point] and active: 24.5 µM"
same,Potency,[10],"inconclusive: 68.4 µM [cytotoxic, single point]"
same,Potency,[7],inconclusive: 54.8 µM and inconclusive: 52.9 µM
same,Potency,[4],"inconclusive: 21.9 µM [rising, single point]"
same,activation,[4],inconclusive: 26.1%
same,Potency,[9],"inconclusive: 61.5 µM [cytotoxic, single point] and active: 49 µM"
same,Potency,[3],inconclusive: 54.8 µM and inconclusive: 24.5 µM [inhibitor]
same,Potency,[5],inconclusive: 48.8 µM [partial curve] and inconclusive: 54.9 µM
